Measurements from patent US20250214977A1, “STAT6 INHIBITORS AND USES THEREOF” (Kymera Therapeutics, Inc., priority 2024, published 2025).

These compounds were tested against T1, biotinylated truncated STAT6 (123-632)-avi (Homo sapiens, UniProt P42226) (assay: Homogenous Time-Resolved Fluorescence (HTRF) binding assay). Conditions: 0.15 nM biotinylated truncated STAT6 (123-632)-avi, 20 nM fluorescein-labeled probe, 30 minutes at room temperature.
T1 sequence (P42226 123-632 limits assumed): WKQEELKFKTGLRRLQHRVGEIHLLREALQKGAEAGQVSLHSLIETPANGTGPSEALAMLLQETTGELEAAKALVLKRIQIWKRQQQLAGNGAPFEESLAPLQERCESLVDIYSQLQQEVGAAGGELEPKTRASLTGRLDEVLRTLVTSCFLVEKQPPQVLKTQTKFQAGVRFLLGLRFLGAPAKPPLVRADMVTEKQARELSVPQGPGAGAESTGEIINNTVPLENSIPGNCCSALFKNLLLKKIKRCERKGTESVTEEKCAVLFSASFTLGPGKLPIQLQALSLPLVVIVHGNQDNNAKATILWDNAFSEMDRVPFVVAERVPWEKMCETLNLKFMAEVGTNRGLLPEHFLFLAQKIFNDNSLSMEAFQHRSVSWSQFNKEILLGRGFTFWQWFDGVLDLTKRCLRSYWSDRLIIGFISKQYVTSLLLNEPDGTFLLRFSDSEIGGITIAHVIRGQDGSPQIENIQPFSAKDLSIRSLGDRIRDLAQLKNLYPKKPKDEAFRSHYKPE
With `Cc1cc(Cl)c(S(C)(=O)=O)cc1C(=O)N1CCC=C(c2ccc3cc(C(=O)N(C)C)[nH]c3c2)C1` [Example I-74] the IC50 was 10 to 100 µM.
`CN(C)C(=O)c1cc2ccc(C3=CCCN(C(=O)CN(C)S(=O)(=O)c4ccccc4)C3)cc2[nH]1` [Example I-75] was tested, and the IC50 was 10 to 100 µM.
`CN(C)C(=O)c1cc2ccc(C3=CCCN(C(=O)[C@@H]4C[C@H](c5ccccc5)CN4)C3)cc2[nH]1` [Example I-76] showed an IC50 of 10 to 100 µM.
`CC(=O)NC(C(=O)N1CCC=C(c2ccc3cc(C(=O)N(C)C)[nH]c3c2)C1)c1cccc(Cl)c1` (stereo not drawn) [Example I-77] gave an IC50 of 10 to 100 µM.
`CN(C)C(=O)c1cc2ccc(C3=CCCN(C(=O)C4(c5ccc(Cl)cc5)CC(O)C4)C3)cc2[nH]1` (stereo not drawn) [Example I-78] showed an IC50 of 10 to 100 µM.
With `CN(C)C(=O)c1cc2ccc(C3=CCCN(C(=O)CN4C(=O)COc5ccccc54)C3)cc2[nH]1` [Example I-79] the IC50 was 10 to 100 µM.
For `CN(C)C(=O)c1cc2ccc(C3=CCCN(C(=O)CCn4ncc5cc(Cl)ncc54)C3)cc2[nH]1` [Example I-80], the IC50 was 10 to 100 µM.
`CCOC(=O)N(CC(=O)N1CCC=C(c2ccc3cc(C(=O)N(C)C)[nH]c3c2)C1)Cc1ccco1` [Example I-81] was tested, and the IC50 was 10 to 100 µM.
`CC(=O)NC(Cc1cccc(F)c1)C(=O)N1CCC=C(c2ccc3cc(C(=O)N(C)C)[nH]c3c2)C1` (stereo not drawn) [Example I-82] showed an IC50 of 10 to 100 µM.
In the case of `CN(C)C(=O)c1cc2ccc(C3=CCCN(C(=O)C4(c5ccc(C(F)(F)F)cc5)CC4)C3)cc2[nH]1` [Example I-84], the IC50 is reported as 1 to 10 µM.
Compound `CN(C)C(=O)c1cc2ccc(C3=CCCN(C(=O)CCCn4c(=O)[nH]c5ccccc54)C3)cc2[nH]1` [Example I-85] has an IC50 of 10 to 100 µM.
In the case of `Cc1cccc(-c2ncccc2C(=O)N2CCC=C(c3ccc4cc(C(=O)N(C)C)[nH]c4c3)C2)c1` [Example I-86], the IC50 is reported as 10 to 100 µM.
Compound `CN(C)C(=O)c1cc2ccc(C3=CCCN(C(=O)C4CC(=O)N(Cc5ccccc5)C4)C3)cc2[nH]1` (stereo not drawn) [Example I-88] has an IC50 of 10 to 100 µM.
With `Cc1nc(-c2ccccc2F)c(C(=O)N2CCC=C(c3ccc4cc(C(=O)N(C)C)[nH]c4c3)C2)o1` [Example I-89] the IC50 was 10 to 100 µM.
With `CN(C)C(=O)c1cc2ccc(C3=CCCN(C(=O)CCCn4ncc5nc(Cl)ccc54)C3)cc2[nH]1` [Example I-90] the IC50 was 10 to 100 µM.
Compound `CN(C)C(=O)c1cc2ccc(C3=CCCN(C(=O)c4ccccc4CSc4ccccc4)C3)cc2[nH]1` [Example I-92] has an IC50 of 10 to 100 µM.
`CN(C)C(=O)c1cc2ccc(C3=CCCN(C(=O)C4COCC(=O)N4Cc4ccccc4)C3)cc2[nH]1` (stereo not drawn) [Example I-93] was tested, and the IC50 was 10 to 100 µM.
`CN(C)C(=O)c1cc2ccc(C3=CCCN(C(=O)c4cccnc4-c4cc(F)cc(F)c4)C3)cc2[nH]1` [Example I-94] showed an IC50 of 10 to 100 µM.
`CN(C)C(=O)c1cc2ccc(C3=CCCN(C(=O)c4cccnc4SCc4ccccc4)C3)cc2[nH]1` [Example I-95] was tested, and the IC50 was 10 to 100 µM.
Compound `CCC[C@@H](C(=O)N1CCC=C(c2ccc3cc(C(=O)N(C)C)[nH]c3c2)C1)N1Cc2ccccc2C1=O` [Example I-96] has an IC50 of 10 to 100 µM.
With `Cc1cccc(C)c1N1CC(C(=O)N2CCC=C(c3ccc4cc(C(=O)N(C)C)[nH]c4c3)C2)CC1=O` (stereo not drawn) [Example I-97] the IC50 was 10 to 100 µM.
In the case of `CN(C)C(=O)c1cc2ccc(C3=CCCN(C(=O)C4(O)CCN(Cc5ccccc5)CC4)C3)cc2[nH]1` [Example I-98], the IC50 is reported as 10 to 100 µM.
Compound `CN(C)C(=O)c1cc2ccc(C3=CCCN(C(=O)[C@@H]4CCCN4C(=O)c4ccc(F)cc4)C3)cc2[nH]1` [Example I-99] has an IC50 of 10 to 100 µM.
`CN(C)C(=O)c1cc2ccc(C3=CCCN(C(=O)C4CN(Cc5ccccc5)CCO4)C3)cc2[nH]1` (stereo not drawn) [Example I-100] was tested, and the IC50 was 10 to 100 µM.
Compound `CN(C)C(=O)c1cc2ccc(C3=CCCN(C(=O)CNC(=O)c4cccc(C(F)(F)F)c4)C3)cc2[nH]1` [Example I-101] has an IC50 of 10 to 100 µM.
`CN(C)C(=O)c1cc2ccc(C3=CCCN(C(=O)c4cc5occc5n4-c4ccccc4)C3)cc2[nH]1` [Example I-102] gave an IC50 of 10 to 100 µM.
Compound `CN(C)C(=O)c1cc2ccc(C3=CCCN(C(=O)C(CC4CC4)N4Cc5ccccc5C4=O)C3)cc2[nH]1` (stereo not drawn) [Example I-104] has an IC50 of 10 to 100 µM.
`Cc1ccccc1OCc1ccccc1C(=O)N1CCC=C(c2ccc3cc(C(=O)N(C)C)[nH]c3c2)C1` [Example I-106] was tested, and the IC50 was 1 to 10 µM.
For `CN(C)C(=O)c1cc2ccc(C3=CCCN(C(=O)Cc4cccc(OCc5ccccc5)c4)C3)cc2[nH]1` [Example I-107], the IC50 was 10 to 100 µM.
`CN(C)C(=O)c1cc2ccc(C3=CCCN(C(=O)c4ccccc4C(=O)c4ccc(F)cc4)C3)cc2[nH]1` [Example I-108] gave an IC50 of 10 to 100 µM.
`CN(C)C(=O)c1cc2ccc(C3=CCCN(C(=O)C4CCN(c5ncccc5C(=O)O)CC4)C3)cc2[nH]1` [Example I-109] was tested, and the IC50 was 10 to 100 µM.
Work on `CN(C)C(=O)c1cc2ccc(C3=CCCN(C(=O)c4cc(=O)c(OCc5ccccc5)c[nH]4)C3)cc2[nH]1` [Example I-110] yielded an IC50 of 1 to 10 µM.
`CN(C)C(=O)c1cc2ccc(C3=CCCN(C(=O)CCC(=O)O)C3)cc2[nH]1` [Example I-112] was tested, and the IC50 was > 100 µM.
In the case of `CNc1ccc(-c2cc(C3=CCCN(C(=O)CCn4ccnn4)C3)cc3[nH]c(C(=O)N(C)C)cc23)cc1` [Example I-113], the IC50 is reported as < 0.1 µM.
Work on `CNc1ccc(-c2cc(C3=CCCN(C(=O)CCn4ccnn4)C3)cc3[nH]c(C(=O)N(C)C)cc23)c(F)c1` [Example I-115] yielded an IC50 of 0.1 to 1 µM.
For `CNc1ccc(-c2cc(C3=CCCN(C(=O)CCn4ccnn4)C3)cc3[nH]c(C(=O)N(C)C)cc23)nc1` [Example I-116], the IC50 was < 0.1 µM.
`CNc1ccc(-c2cc(C3=CCCN(C(=O)CCn4ccnn4)C3)cc3[nH]c(C(=O)N(C)C)cc23)c(OC)c1` [Example I-117] was tested, and the IC50 was < 0.1 µM.
`O=C(CCn1ccnn1)N1CCC=C(c2ccc3cc(-c4ccccn4)[nH]c3c2)C1` [Example I-119] was tested, and the IC50 was 10 to 100 µM.
For `CN(C)C(=O)c1cc2ccc(C3=CCCN(C(=O)OCn4ccnn4)C3)cc2[nH]1` [Example I-120], the IC50 was > 100 µM.
For `CN(C)C(=O)c1cc2ccc(C3=CCCN(C(=O)[C@@H](Cn4ccnn4)c4cccc(O)c4)C3)cc2[nH]1` [Example I-122], the IC50 was 1 to 10 µM.
Compound `O=C(CCn1ccnn1)N1CCC=C(c2ccc3cc(C(=O)N4CCCCC4)[nH]c3c2)C1` [Example I-123] has an IC50 of 0.1 to 1 µM.
`O=C(CCn1ccnn1)N1CCC=C(c2ccc3cc(C(=O)N4CCCC4)[nH]c3c2)C1` [Example I-124] gave an IC50 of 1 to 10 µM.
`O=C(CCn1ccnn1)N1CCC=C(c2ccc3cc(C(=O)N4CCC4)[nH]c3c2)C1` [Example I-125] gave an IC50 of 1 to 10 µM.
With `CC1CCCN(C(=O)c2cc3ccc(C4=CCCN(C(=O)CCn5ccnn5)C4)cc3[nH]2)C1` (stereo not drawn) [Example I-126] the IC50 was 1 to 10 µM.
`CC1CCCN(C(=O)c2cc3ccc(C4=CCCN(C(=O)CCn5ccnn5)C4)cc3[nH]2)C1` (stereo not drawn) [Example I-127] gave an IC50 of 0.1 to 1 µM.
Compound `O=C(CCn1ccnn1)N1CCC=C(c2ccc3oc(C(=O)N4CCCCC4)cc3c2)C1` [Example I-128] has an IC50 of 0.1 to 1 µM.
In the case of `CN(C)C(=O)c1cc2ccc(C3=CCCN(C(=O)c4ccc5c(c4)OCC(=O)N5)C3)cc2[nH]1` [Example I-132], the IC50 is reported as 10 to 100 µM.
Work on `Cc1cc(CC(=O)N2CCC=C(c3ccc4cc(C(=O)N(C)C)[nH]c4c3)C2)on1` [Example I-133] yielded an IC50 of 1 to 10 µM.
Work on `CN(C)C(=O)c1cc2ccc(C3=CCCN(C(=O)CCN4CCOC4=O)C3)cc2[nH]1` [Example I-134] yielded an IC50 of 10 to 100 µM.
With `CN(C)C(=O)c1cc2ccc(C3=CCCN(C(=O)CC(C)(C)NCc4ccccc4)C3)cc2[nH]1` [Example I-135] the IC50 was 10 to 100 µM.
`COc1ccc(Cn2cc(CC(=O)N3CCC=C(c4ccc5cc(C(=O)N(C)C)[nH]c5c4)C3)cn2)cc1` [Example I-136] showed an IC50 of 10 to 100 µM.
For `CN(C)C(=O)c1cc2ccc(C3=CCCN(C(=O)c4cccnc4-c4ccc(F)c(F)c4)C3)cc2[nH]1` [Example I-137], the IC50 was 10 to 100 µM.
For `CN(C)C(=O)c1cc2ccc(C3=CCCN(C(=O)C4CCN(S(C)(=O)=O)CC4)C3)cc2[nH]1` [Example I-140], the IC50 was 10 to 100 µM.
For `COC(=O)c1ccc(OCC(=O)N2CCC=C(c3ccc4cc(C(=O)N(C)C)[nH]c4c3)C2)cc1` [Example I-142], the IC50 was 1 to 10 µM.
In the case of `CN(C)C(=O)c1cc2ccc(C3=CCCN(C(=O)c4snnc4C4CC4)C3)cc2[nH]1` [Example I-143], the IC50 is reported as 10 to 100 µM.
`CN(C)C(=O)c1cc2ccc(C3=CCCN(C(=O)c4cc(C#N)ccc4Br)C3)cc2[nH]1` [Example I-144] showed an IC50 of 0.1 to 1 µM.
Work on `COCc1oncc1C(=O)N1CCC=C(c2ccc3cc(C(=O)N(C)C)[nH]c3c2)C1` [Example I-145] yielded an IC50 of 1 to 10 µM.
Work on `CN(C)C(=O)c1cc2ccc(C3=CCCN(C(=O)c4ccnnc4O)C3)cc2[nH]1` [Example I-146] yielded an IC50 of 10 to 100 µM.
`CN(C)C(=O)c1cc2cc(C3=CCCN(C(=O)CCc4nncs4)C3)ccc2o1` [Example I-147] gave an IC50 of 0.1 to 1 µM.
For `CNCc1cccc2c1CC(C(=O)N1CCC=C(c3ccc4oc(C(=O)N(C)C)cc4c3)C1)N(C=O)C2` (stereo not drawn) [Example I-148], the IC50 was 10 to 100 µM.
With `COC(=O)C1CCC(c2ccc3oc(C(=O)N(C)C)cc3c2)CN1C(=O)CCn1ccnn1` (stereo not drawn) [Example I-149] the IC50 was 10 to 100 µM.
Work on `COC(=O)C1CCC(c2ccc3oc(C(=O)N(C)C)cc3c2)CN1C(=O)CCn1ccnn1` (stereo not drawn) [Example I-150] yielded an IC50 of 10 to 100 µM.
In the case of `CCNC(Cn1ccnn1)C(=O)N1CCC=C(c2ccc3oc(C(=O)N(C)C)cc3c2)C1` (stereo not drawn) [Example I-153], the IC50 is reported as 10 to 100 µM.
In the case of `CN(C)C(=O)c1cc2cc(C3CCC(CO)N(C(=O)CCn4ccnn4)C3)ccc2o1` (stereo not drawn) [Example I-154], the IC50 is reported as 10 to 100 µM.
`CN(C)C(=O)c1cc2ccc(C3=CCCN(C(=O)c4ccc(N5CCOCC5)c(F)c4)C3)cc2[nH]1` [Example I-158] gave an IC50 of 1 to 10 µM.
With `CN(C)C(=O)c1cc2ccc(C3=CCCN(C(=O)C(CO)c4ccccc4)C3)cc2[nH]1` (stereo not drawn) [Example I-159] the IC50 was 10 to 100 µM.
